The list shows a part of the results. At the low end of the ranking the order means little. Measured with an extract: partners may take part in the binding.

In this test the target is T1, HNF4alpha8 (COS-7 nuclear extract) (UniProt P41235-5).
T1 sequence: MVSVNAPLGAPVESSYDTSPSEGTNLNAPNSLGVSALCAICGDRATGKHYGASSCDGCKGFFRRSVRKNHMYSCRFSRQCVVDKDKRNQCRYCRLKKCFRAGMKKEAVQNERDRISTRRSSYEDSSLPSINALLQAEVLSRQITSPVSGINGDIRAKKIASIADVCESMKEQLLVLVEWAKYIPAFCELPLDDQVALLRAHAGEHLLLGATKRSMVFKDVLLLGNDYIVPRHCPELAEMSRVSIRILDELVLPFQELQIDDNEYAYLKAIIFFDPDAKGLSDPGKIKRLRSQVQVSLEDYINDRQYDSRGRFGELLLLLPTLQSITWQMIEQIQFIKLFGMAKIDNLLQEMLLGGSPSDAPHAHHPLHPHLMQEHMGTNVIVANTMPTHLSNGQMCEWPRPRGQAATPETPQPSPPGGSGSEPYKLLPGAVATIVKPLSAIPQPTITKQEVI
Briefly: protein-binding microarray. The following applies: COS-7 nuclear extract on double-stranded Agilent 4x180k PBM; binding buffer, salt, pH and temperature not given; high values mean tight binding; double strand, one strand shown; sequences stand for … in …GCCTAGGGAGATTAGAGTATCGGTCGA
As to GCTAGAGCGCGCTGGAATCTTGATAATGCC, the binding signal (log2 normalized intensity) was -1.43.

With GCTTCCAATCCTGGAGAAGGAGCACCAATG, the binding signal (log2 normalized intensity) was -1.17.

In the case of GTAAACTAGTGATGTGGAAATCTGGACTCA, the binding signal (log2 normalized intensity) was found to be 3.49.

Take TGTATCTATCTCTATGTCCACAGAAAGGCA: the binding signal (log2 normalized intensity) came out at 0.639.

Take CCTCTGCCTAGGAAAACCAGAGACCTTTGT: the binding signal (log2 normalized intensity) stood at 3.68.

Take CTGGAATTTCAAAGGGAGCATATGTATGTC: the binding signal (log2 normalized intensity) was 1.15.

GGAGAACAAACCTTATCTCTCAAGGTTCCC: the binding signal (log2 normalized intensity) is -1.02.

Consider CAGATTAGAAGGCAGAGAAAGATAGGAGAT, for which the binding signal (log2 normalized intensity) is -1.19.

With TTCTTTCGGTCACCCACACAAAAATGTGCC, the binding signal (log2 normalized intensity) is -1.22.

Consider ACTCTGTTTGTAAAGTCTACAAGTGGATAT, for which the binding signal (log2 normalized intensity) turned out to be 1.12.

Take CAAACAAAAAACCCTAGAGATGTACACAGT: the binding signal (log2 normalized intensity) is -1.11.

On to TATACCTGTACACTTACAAGTGTACAAAGG, for which the binding signal (log2 normalized intensity) turned out to be 2.96.

Consider TAGGCCTTTCCTGGGCCTTAAAGCATGACA, for which the binding signal (log2 normalized intensity) was -1.15.

For the sequence CAAATTTGGGAGGGAAGAGGCAAGGAAAGA, the binding signal (log2 normalized intensity) was -1.31.

TCATGAGTAGGTTTACTAAAGGAAGGGAGG: the binding signal (log2 normalized intensity) is -1.18.

In the case of TGGAGATAACACACAGGCTCAACGGGTTAG, the binding signal (log2 normalized intensity) is -1.27.

On to CATTGGAGGTCACCCTGTGTCAGCGACTGG, for which the binding signal (log2 normalized intensity) was -1.22.

On to ATGTGTGCTTTCAGGTGTGAACCCAGGCAA, for which the binding signal (log2 normalized intensity) is 2.46.

With CACCAGAAAAATGTACATGTGCAAAAGCAC, the binding signal (log2 normalized intensity) is -1.12.

As for TTAAGAACTGGAGTAAAGGTCACTCTTGCT, the binding signal (log2 normalized intensity) was found to be 3.94.

As to GCTGTGTACTTTGAACTGAAGGATATTGGC, the binding signal (log2 normalized intensity) is 4.44.

For the sequence ATGGAATTTAATTAGCTTCTGTTCAGGAGT, the binding signal (log2 normalized intensity) was -0.251.

Turning to CACTGATAACATGAGGATACTGATAACATG, the binding signal (log2 normalized intensity) was -0.35.

As to GCTAATGAGATAATGCTGGTAAAGCACTTT, the binding signal (log2 normalized intensity) amounted to 0.678.

With CAGTGATCTTATCGCCTAGTACTCCTGCCC, the binding signal (log2 normalized intensity) is 0.833.

On to CTCAGAGTCTGTGGAGACACTGCCAGTGTC, for which the binding signal (log2 normalized intensity) was -1.3.

As for GCATGACCTCAACTCTCAGTTTGGCTCTTA, the binding signal (log2 normalized intensity) was 0.116.

In the case of TCTAGATAAGTTTATTTACTTATGTTGTCC, the binding signal (log2 normalized intensity) was 1.85.

Take GGGGAGGTGGGAAAAGAAATGTAGTGACAG: the binding signal (log2 normalized intensity) is -0.392.

Consider AAAGGTCACTTCTGTTCATTGATAAAGGGT, for which the binding signal (log2 normalized intensity) was determined as 3.11.

With GGGCGCCTCCCGGAGGACCCGACCGGAGAG, the binding signal (log2 normalized intensity) is -1.23.

For the sequence GGACTAGTAGAGTGGGGAGGTAGGGCAAGA, the binding signal (log2 normalized intensity) is -1.41.

In the case of CCCAGGGAGAGCTGGACTTTCATCTGAGTC, the binding signal (log2 normalized intensity) is 4.04.

For GAAACATTTTACTCACCCCTTGCTGAGTGG, the binding signal (log2 normalized intensity) is 1.49.

ACACTGATACAGCATGGCCCAGGGACTCAG: the binding signal (log2 normalized intensity) is -1.32.

Consider GGTGAAAGATAAGGGCTAGTTCATTAAACA, for which the binding signal (log2 normalized intensity) was -1.36.

On to TCAAAAGCTGTGTGCTCCTGTAGAATGACC, for which the binding signal (log2 normalized intensity) came to 2.7.

Consider TAGTGTGTCAGGGAAGGCTAGCATTCCTGC, for which the binding signal (log2 normalized intensity) was -1.33.

For CAGTCAGACACGCCTTGCACAAATTTCAGA, the binding signal (log2 normalized intensity) was -1.22.

As to ACTTTATATTCCTTTGTATCTGTACCTTAA, the binding signal (log2 normalized intensity) was found to be 2.81.

For AAGGTCGTGTGCTTATCACATCTATCTGCC, the binding signal (log2 normalized intensity) was 0.746.

With TCATTGAGCCCTCCCCTTGTCTGATAAGAT, the binding signal (log2 normalized intensity) came to 2.69.

In the case of GGCCTTTACCCCTTGAGTTTGAACTTTGAC, the binding signal (log2 normalized intensity) amounted to 7.11.

Consider GGCCTCTCAGGTCAGGGAAGACTGATAAGA, for which the binding signal (log2 normalized intensity) was -1.35.

Take TCAGCCTGGCTGTGTAGACATCACCTGCTC: the binding signal (log2 normalized intensity) is -0.923.

In the case of TTTACTTAACCTTTGATCATATGCATTTCC, the binding signal (log2 normalized intensity) turned out to be 4.77.

For TCATTTTTTTGATTACCTTAGGGGGAAACA, the binding signal (log2 normalized intensity) was determined as 0.347.

Turning to CTGATATAGAACACTTGTACATACTTTTGG, the binding signal (log2 normalized intensity) came to 0.97.

For TAGGCATTGTCTTGAAAGATAAAGTGTCTC, the binding signal (log2 normalized intensity) was determined as 1.48.

Regarding GTCTGAATTCTAGTCCTATCACTGTCTAGC, the binding signal (log2 normalized intensity) is -1.28.

Consider ACTGCCTCTTACAACGAGGTGCCAGAAACC, for which the binding signal (log2 normalized intensity) is -1.25.

With ACTGCCCTTTGGTGCCTCTTTTTTCTTGTT, the binding signal (log2 normalized intensity) stood at 2.6.

Turning to TGTGATAGGCATGCAAACTTTGTTTAATGA, the binding signal (log2 normalized intensity) was determined as 0.318.

With CCCGCCTAACCTTGAGGAGCCCTATCCGCA, the binding signal (log2 normalized intensity) is -1.31.

Turning to TTGTCCAGCAGACACGGGCAGGTGAGAGGG, the binding signal (log2 normalized intensity) is -1.31.

Regarding TGCTCCACGCAAACACAAAAGGATCACAGT, the binding signal (log2 normalized intensity) is -1.32.

As to TAGACACTGGGGACTAGTAGAGTGGGGAGG, the binding signal (log2 normalized intensity) was -1.3.

In the case of AGTCTAGATAATCTAAAGCCGAAAGAGGGT, the binding signal (log2 normalized intensity) is -1.11.

Turning to ACAGCCTTTTGAGTTTCTACCATAGACCCT, the binding signal (log2 normalized intensity) came out at 0.861.

On to GTGGTGGTTCTTGTTTCATTGCACAGTTAC, for which the binding signal (log2 normalized intensity) turned out to be 2.22.

Turning to GCTCGGCCCCAGTCCCCCGGACCAGGCCGG, the binding signal (log2 normalized intensity) worked out at 2.8.

As for CCAGAATGTTCAAAAGTGTGTTGGTTTCCT, the binding signal (log2 normalized intensity) was 1.43.

Regarding AAGGTGGTTGCTGTTATCTTCATTTATAGA, the binding signal (log2 normalized intensity) stood at 0.624.

Consider TCAGGAAGGAATAAAAGGCTGTTCTGATGC, for which the binding signal (log2 normalized intensity) was -1.32.

With AGAAGAAACCTTTGCCCAACAGGATTAGTG, the binding signal (log2 normalized intensity) was 1.37.

Turning to GAGTCTCCACTATGACCTGTGCTTTGCCAT, the binding signal (log2 normalized intensity) is 1.64.

Take ACCCGTCCGCTTGATGCCTGTTGCTCAGAA: the binding signal (log2 normalized intensity) is -1.13.

With TTGGAATACATGGAATGCTCTCTCTCTTTT, the binding signal (log2 normalized intensity) came out at 0.995.

As to ACTTCTCTCGGCCTTAAGAGTCAAAGGGCA, the binding signal (log2 normalized intensity) is 4.56.

As for ACCACCTTCCCCCATCCCCAACAAAGCTCT, the binding signal (log2 normalized intensity) stood at 4.85.

On to GGGGCAGAGTGAGCAGCACTTTTGGAGTTT, for which the binding signal (log2 normalized intensity) was determined as 2.17.

TAGCCTTTTTGCCCACAGACTAGACCATCA: the binding signal (log2 normalized intensity) was -1.24.

Turning to CAATTTGATTTGTATGATCTTGGGTATATC, the binding signal (log2 normalized intensity) came to 1.49.

The values above are taken from article PMC10726135.
